# Assay results reported in PubChem BioAssay AID1346428 (National Center for Advancing Translational Sciences (NCATS), 2018).
# Where “and” joins values, the source holds several entries; their conditions need not be identical. Equal entries are not always repeated. The campaign covered roughly 48,000 compounds. About 1,200 (2.5%) were called active. Not shown: some 2% with an inconclusive outcome.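 How the source made its calls: active means activation of at least 60% and not above a set upper limit (about 1 call in 100 departs from these limits); inconclusive means activation of 40% to 60%, or above that upper limit; inactive means activation under 40%.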 This is one part of the list.
# Molecular target: Probable G-protein coupled receptor 32 (Homo sapiens) (UniProt O75388)
# Test: qHTS for Agonists of Human Resolvin D1 Receptor DRV1
# Conditions: CHO-K1 GPR32 beta-arrestin PathHunter luminescence, 90 min; at 76.9 µM; active compounds read high; zero percent set by DMSO-only wells
# Method in brief: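 Using DMSO wells as EC0, agonist-induced signal was taken as chemiluminescence from beta-Gal reconstituted upon beta-arrestin recruitment to GPR32 in CHO-K1 cells after 90 min compound treatment.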
# UniProt O75388, sequence (O75388 whole entry, looked up): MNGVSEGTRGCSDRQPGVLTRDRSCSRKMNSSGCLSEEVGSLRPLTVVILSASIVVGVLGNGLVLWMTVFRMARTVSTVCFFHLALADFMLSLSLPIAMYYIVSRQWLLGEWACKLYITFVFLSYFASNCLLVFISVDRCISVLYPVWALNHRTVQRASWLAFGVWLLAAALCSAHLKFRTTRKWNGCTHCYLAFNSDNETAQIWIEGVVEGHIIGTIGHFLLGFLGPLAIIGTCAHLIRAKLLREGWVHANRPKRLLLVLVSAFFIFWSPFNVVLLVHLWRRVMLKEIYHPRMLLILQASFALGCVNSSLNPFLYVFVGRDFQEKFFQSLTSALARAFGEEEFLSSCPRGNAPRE
row,SMILES,activation
1,C[C@@H]1CN(c2c(F)c(N)c3c(=O)c(C(=O)O)cn(C4CC4)c3c2F)C[C@H](C)N1,inactive: 7.84%
2,Cc1cccc(NC(=O)CSc2nc(C)c(Cc3ccccc3)c(=O)[nH]2)c1,active: 68.4%
3,CCCNC(=O)CN1C(=O)c2cccnc2Sc2ccccc21,inactive: -9.76%
4,COc1ccccc1N1CCN(C(=O)c2c3c(nc4ccccc24)C(=O)N(C2CCCCC2)C3)CC1,inactive: -17.3%
5,Cc1ccc(C)c(N2CCN(C(=O)c3c4c(nc5ccccc35)C(=O)N(C3CCCCC3)C4)CC2)c1,inactive: -11.8%
6,COc1ccc(-c2nc(CNS(=O)(=O)c3ccc(F)cc3)cs2)cc1,inactive: -17.9%
7,CCCOc1cccc(C(=O)Nc2ccc(-c3nc4ccccc4o3)cc2)c1,active: 108%
8,CCC(C)NC(=O)c1sc2nc(C)c(C(=O)Nc3ccc(Cl)cc3)c(-c3ccc(Br)cc3)c2c1N (configuration not stated),inactive: 8.44%
9,O=C(N/N=C/c1ccccc1O)c1ccncc1,active: 95.9%
10,O=C(CSc1nc2c(c(=O)[nH]1)CN(Cc1ccc3c(c1)OCO3)CC2)Nc1ccc(F)cc1,inactive: 23.7%
11,COc1ccc2cc(CNc3ccc(OC)c(OC)c3)c(=O)n(CC(=O)Nc3ccc(C)cc3)c2c1,inactive: -35.9%
12,COc1cc(OC)cc(-n2c(=O)c3ccccc3n(CC(=O)NCCc3ccc(OC)c(OC)c3)c2=O)c1,inactive: 6.92%
13,COC(=O)c1cc(NC(=O)CN(c2ccccc2)S(=O)(=O)N(C)C)ccc1Cl,inactive: 20%
14,COc1ccc(NC(=O)Cn2cc(C(=O)C3CC3)c3ccccc32)cc1,inactive: 13%
15,CCN1CCN(C(=O)c2ccc3c(c2)N(Cc2cc(C)ccc2C)C(=O)c2ccccc2S3=O)CC1 (configuration not stated),inactive: -13.8%
16,CCOc1ccccc1NC(=O)Cn1nnc2sc3c(c2c1=O)CCC(C(C)(C)C)C3 (configuration not stated),inactive: -6.95%
17,NS(=O)(=O)c1ccc(CCNc2nc3c(-c4cccc(F)c4)nnn3c3ccc(Cl)cc23)cc1,inactive: 13.8%
18,CCOC(=O)c1c(C)oc2c(Cl)cc(NS(=O)(=O)c3ccc(Cl)c(C)c3)cc12,inactive: 30.9%
19,CCCCN(CCCC)S(=O)(=O)c1ccc2oc(C(=O)NCc3ccccc3)c(C)c2c1,inactive: -14.4%
20,CCN(CC)CCCNC(=O)Cn1c(-c2cccs2)cc2cc(Cl)ccc21,inactive: 18.1%
21,O=C(CCCCn1c(=O)[nH]c2ccsc2c1=O)N1CCN(c2cccc(Cl)c2)CC1,active: 71.9%

row,SMILES,activation
1,Cc1ccc(CSc2nc3ccc(NC(=O)COc4ccccc4F)cc3s2)cc1,inactive: -11.2%
2,CCOC(=O)c1c(C)[nH]c(C)c1S(=O)(=O)N(C)CC(=O)N1CCN(c2ccccc2OC)CC1,inactive: 1.25%
3,CCOC(=O)N1CCN(C(=O)CN(c2ccc(C)cc2C)S(=O)(=O)c2ccccc2)CC1,inactive: -0.525%
4,O=C(CN1C(=O)C2(SCC(=O)N2c2cccc(Cl)c2)c2ccccc21)NC1CCCCC1 (configuration not stated),inactive: -15.7%
5,Cc1cc(C)c(/C=C/c2onc(C)c2S(=O)(=O)N2CCC(C(=O)NCc3ccco3)CC2)c(C)c1,inactive: -31.1%
6,Cc1nn(CC(=O)N2CCN(c3ccccc3)CC2)c(=O)c2cccn12,inactive: -2.84%
7,O=C(CNS(=O)(=O)c1ccc(Br)s1)N1CCN(c2ccccc2F)CC1,inactive: 0.367%
8,Cc1ccc(-c2nc3c(cnn3-c3ccccc3)c(=O)n2-c2ccc(Cl)cc2)cc1,inactive: -13.4%
9,O=C(COCc1cc(-c2ccco2)on1)Nc1ccc(OC(F)(F)F)cc1,inactive: -5.73%
10,COc1cccc(OC)c1C(=O)Nc1ccc2c(c1)CCCN2S(=O)(=O)c1ccc(C)cc1,inactive: -17.3%
11,CCc1nn(CC(=O)NCc2cccc(OC)c2)c(=O)c2cc3cc(F)ccc3n12,inactive: -19.3%
12,Cc1oc(-c2ccc(Cl)cc2)nc1Cn1c(=O)cc(-c2ccccc2)c2c(C)nn(C)c21,inactive: -2.43%
13,Cc1ccc(-n2ncc3c(NCCC4=CCCCC4)ncnc32)cc1C,inactive: 1.08%
14,CCc1ccc(C(=O)COC(=O)C(NC(=O)C2CCC(C)CC2)C(C)C)cc1 (configuration not stated),inactive: 24.4%
15,CCN(c1ccccc1)S(=O)(=O)c1ccc(NC(=O)c2nc(S(C)(=O)=O)ncc2Cl)cc1,inactive: -16.4%
16,COc1cc(CNC(=O)c2cnc3c(-c4cccc(C)c4)c(C)nn3c2C)cc(OC)c1OC,inactive: -11%
17,COc1ccc(-c2cc3ccc(O)c(CN4CCN(C)CC4)c3oc2=O)cc1OC,inactive: 2.69%
18,CC(=O)Oc1cc(C(C)C)c(OCCN(C)C)cc1C,inactive: 1.49% and inactive: -11.3%
19,CCCc1ccc(OCC(=O)Nc2sc3c(c2C(=O)OCC)CCC(C(C)(C)C)C3)cc1 (configuration not stated),inactive: 10.4%
20,CC(=O)Nc1ccc(Nc2ccc3cc(S(=O)(=O)N4CCCCC4)ccc3n2)cc1,inactive: -11.6%
21,O=C(NC1CC(=O)N(c2ccc(Cl)cc2)C1)c1cc2ccccc2o1 (configuration not stated),inactive: -6.89%

row,SMILES,activation
1,Nc1cc(=O)nc(SCC(=O)Nc2ccccc2)n1CCc1ccccc1,inactive: -14.5%
2,Cc1cccc(CNS(=O)(=O)c2ccc(-c3coc(C)n3)cc2)c1,active: 98.5%
3,CCOC(=O)c1c(-c2ccc(OC)c(OC)c2)csc1NC(=O)c1ccccc1F,inactive: 2.96%
4,COc1ccc2c(c1)c1c(c(=O)n(-c3cccc(C)c3)c(=O)n1CC(=O)NCCC1=CCCCC1)n2C,inactive: 3.55%
5,COc1ccccc1Nc1nc(-c2ccccc2)c(CC(=O)O)s1,inactive: -7.89%
6,O=c1c2cccnc2n(Cc2cccc(F)c2)c(=O)n1Cc1ccc(F)cc1,inactive: -17.1%
7,COc1ccc2[nH]cc(CCNC(=O)Nc3cc(C)cc(C)c3)c2c1,inactive: 17.6%
8,CCC(Nc1ccc(-c2nc(-c3cccnc3)no2)cc1[N+](=O)[O-])c1ccccc1 (configuration not stated),inactive: -11.5%
9,Cc1ccc2nc3c(cc(C(=O)NC4CCCC4)c(=N)n3C(C)C)c(=O)n2c1,inactive: -6.41%
10,O=C1Cc2cc(S(=O)(=O)Nc3ccc(OC(F)(F)F)cc3)cc3c2N1CCC3,inactive: -12.1%
11,Cc1ccccc1OCC(=O)Nc1ccc2nc(SCC(=O)N3CCCC3)sc2c1,inactive: 24.3%
12,CCOC(=O)c1cc(-c2ccc(OC)c(S(=O)(=O)N3CCN(c4ccccc4)CC3)c2)on1,inactive: -10.9%
13,COc1ccc(S(=O)(=O)c2nnn(-c3cccc(Cl)c3)c2N)cc1,inactive: -5.61%
14,COc1cc2c(cc1OC)C(CC(=O)O)N(C(=O)Nc1cc(OC)c(OC)c(OC)c1)CC2 (configuration not stated),inactive: -13.1%
15,Cc1ccc(C)c(N2CCN(CCCNC(=O)c3ccc4nc(N5CCC(C)CC5)sc4c3)CC2)c1,inactive: -27.4%
16,CCc1ccc(C2=NN(CCC(=O)NCCc3ccccc3)C(=O)CC2)cc1,inactive: -27.5%
17,CCc1c(C)c2cc3c(c(C)c2oc1=O)OCN(CCc1ccc(OC)c(OC)c1)C3,inactive: 8.06%
18,CC(=O)c1ccc(Nc2cc(C)nc3nc(Cc4ccccc4)nn23)cc1,inactive: -2.99%
19,CCc1cccc(NC(=O)C(Cc2ccccc2)NS(=O)(=O)c2cccs2)c1 (configuration not stated),inactive: 48.7%
20,COc1ccc(-n2c(=O)c3c4c(sc3n(Cc3ccccc3C)c2=O)CCCC4)c(OC)c1,inactive: -9.5%
21,COc1ccc(N(CC(=O)NCCc2ccccc2)S(=O)(=O)c2c(C)nn(C)c2C)cc1,inactive: -5.5%

row,SMILES,activation
1,CCCn1c2ccccc2c2cnn(CC(=O)Nc3cc(OC)c(OC)c(OC)c3)c(=O)c21,inactive: -13.8%
2,NS(=O)(=O)c1ccc(NC(=O)CCC(=O)O)cc1,inactive: -2.15%
3,Cc1ccc(N2CCN(C(=O)Cn3ncc4c([nH]c5ccc(C)cc54)c3=O)CC2)c(C)c1,inactive: 3.99%
4,CCC1(C)CC(=O)c2c(ccc3oc(C(=O)Nc4ccc(C(C)=O)cc4)c(C)c23)O1 (configuration not stated),inactive: -15.8%
5,CCOc1ccc(C(=O)NCCc2csc(-c3cccc(C)c3)n2)cc1,inactive: -8.8%
6,CC(C)CC(=O)Nc1nnc(S(=O)(=O)N2c3ccccc3CC2C)s1 (configuration not stated),inactive: -2.69%
7,CCc1nc2ccc(C(=O)N3CCN(c4cccc(Cl)c4)CC3)cc2nc1CC,inactive: -29.3%
8,CC(C)c1ccc(Nc2sc(C(=O)c3ccccc3)c(N)c2S(=O)(=O)c2ccccc2)cc1,inactive: -1.26%
9,CCOC(=O)c1c(NC(=O)COc2ccccc2)sc(C(C)=O)c1C,inactive: 8.88%
10,CCN(C(=O)Cn1nc(Cc2ccncc2)c2ccccc2c1=O)c1ccc(OC)cc1,inactive: -18%
11,COc1cc(C2CC(=O)c3c([nH]c(C(=O)OC4CCCC4)c3C)C2)cc(OC)c1OC (configuration not stated),inactive: 30.6%
12,COC(=O)c1c(NC(=O)c2ccc(C(C)(C)C)cc2)sc2c1CCC(C)C2 (configuration not stated),inactive: -6.04%
13,CC[C@@]1(O)C(=O)OCc2c1cc1n(c2=O)Cc2c-1nc1ccccc1c2/C=N/OC(C)(C)C,inactive: 17.5%
14,O=C(CSc1nc(=O)n(Cc2ccncc2)c2c1CCC2)Nc1cccc(F)c1,inactive: 1.27%
15,CCOc1ccc(CCNC(=O)c2ccc(CSCc3ccccc3C)o2)cc1OCC,inactive: -25.2%
16,Clc1ccc(-c2cn3cc(Cc4ccccc4)sc3n2)cc1,inactive: 34.9%
17,CCc1ccc(NC(=O)CNC(=O)Cn2c(C)cc3ccccc3c2=O)cc1,inactive: -0.184%
18,CCN(C(=O)C(NS(=O)(=O)c1ccc(Br)s1)c1ccccc1)c1ccc(C)c(C)c1 (configuration not stated),inactive: -40.3%
19,CC1(C)CC(=O)c2cc(-c3nc(-c4ccc(F)cc4)cs3)c(=O)[nH]c2C1,inactive: -18.4%
